Data published in the supplement of paper PMC8728848.
This is one part of the list.

Assays:
Assay in all cases: glycan array binding signal (z-score within array); higher = stronger binding
Conditions in all cases: glycan notation: IUPAC condensed, linker removed
[1] = biological target: Gal(b1-4)Glc
Method in brief: (§1)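 Glycan array data came from 3228 arrays in the Consortium for Functional Glycomics database, and only arrays with an available protein sequence were kept. Glycan names were put into IUPAC-condensed notation, and columns mapping to the same glycan were averaged. The binding signal is a within-array Z-score, averaged across arrays of one protein sequence run at different concentrations or buffers and across linkers. A negative Z-score can be read as non-binding.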

[2] = biological target: Gal(b1-4)Glc6S
Method in brief: as §1

[3] = biological target: Gal(b1-4)GlcNAc
Method in brief: as §1

[4] = biological target: Gal(b1-4)GlcNAc(a1-6)Gal(b1-4)GlcNAc
Method in brief: as §1

[5] = biological target: Gal(b1-4)GlcNAc(b1-2)Man
Method in brief: as §1

[6] = biological target: Gal(b1-4)GlcNAc(b1-2)Man(a1-3)Man(b1-4)GlcNAc(b1-4)GlcNAc
Method in brief: as §1

[7] = biological target: Gal(b1-4)GlcNAc(b1-2)Man(a1-3)[Gal(b1-4)GlcNAc(b1-2)Man(a1-6)]Man(b1-4)GlcNAc(b1-4)GlcNAc
Method in brief: as §1

[8] = biological target: Gal(b1-4)GlcNAc(b1-2)Man(a1-3)[Gal(b1-4)GlcNAc(b1-2)Man(a1-6)]Man(b1-4)GlcNAc(b1-4)[Fuc(a1-6)]GlcNAc
Method in brief: as §1

[9] = biological target: Gal(b1-4)GlcNAc(b1-2)Man(a1-3)[Gal(b1-4)GlcNAc(b1-2)Man(a1-6)][Gal(b1-4)GlcNAc(b1-4)]Man(b1-4)GlcNAc(b1-4)[Fuc(a1-6)]GlcNAc
Method in brief: as §1

[10] = biological target: Gal(b1-4)GlcNAc(b1-2)Man(a1-3)[Gal(b1-4)GlcNAc(b1-2)Man(a1-6)][GlcNAc(b1-4)]Man(b1-4)GlcNAc(b1-4)[Fuc(a1-6)]GlcNAc
Method in brief: as §1

[11] = biological target: Gal(b1-4)GlcNAc(b1-2)Man(a1-3)[GlcNAc(b1-2)Man(a1-6)]Man(b1-4)GlcNAc(b1-4)GlcNAc
Method in brief: as §1

[12] = biological target: Gal(b1-4)GlcNAc(b1-2)Man(a1-3)[GlcNAc(b1-4)][Gal(b1-4)GlcNAc(b1-2)Man(a1-6)]Man(b1-4)GlcNAc(b1-4)GlcNAc
Method in brief: as §1

[13] = biological target: Gal(b1-4)GlcNAc(b1-2)Man(a1-3)[Man(a1-6)]Man(b1-4)GlcNAc(b1-4)GlcNAc
Method in brief: as §1

[14] = biological target: Gal(b1-4)GlcNAc(b1-2)Man(a1-6)Man(b1-4)GlcNAc(b1-4)GlcNAc
Method in brief: as §1

[15] = biological target: Gal(b1-4)GlcNAc(b1-2)Man(a1-6)[GlcNAc(b1-2)Man(a1-3)]Man(b1-4)GlcNAc(b1-4)GlcNAc
Method in brief: as §1

[16] = biological target: Gal(b1-4)GlcNAc(b1-2)Man(a1-6)[Man(a1-3)]Man(b1-4)GlcNAc(b1-4)GlcNAc
Method in brief: as §1

[17] = biological target: Gal(b1-4)GlcNAc(b1-2)[Gal(b1-4)GlcNAc(b1-4)]Man(a1-3)[Gal(b1-4)GlcNAc(b1-2)Man(a1-6)]Man(b1-4)GlcNAc(b1-4)GlcNAc
Method in brief: as §1

[18] = biological target: Gal(b1-4)GlcNAc(b1-2)[Gal(b1-4)GlcNAc(b1-4)]Man(a1-3)[Gal(b1-4)GlcNAc(b1-2)[Gal(b1-4)GlcNAc(b1-6)]Man(a1-6)]Man(b1-4)GlcNAc(b1-4)GlcNAc
Method in brief: as §1

[19] = biological target: Gal(b1-4)GlcNAc(b1-2)[Gal(b1-4)GlcNAc(b1-4)]Man(a1-3)[GlcNAc(b1-4)][Gal(b1-4)GlcNAc(b1-2)Man(a1-6)]Man(b1-4)GlcNAc(b1-4)GlcNAc
Method in brief: as §1

[20] = biological target: Gal(b1-4)GlcNAc(b1-2)[Gal(b1-4)GlcNAc(b1-4)]Man(a1-3)[GlcNAc(b1-4)][Gal(b1-4)GlcNAc(b1-2)[Gal(b1-4)GlcNAc(b1-6)]Man(a1-6)]Man(b1-4)GlcNAc(b1-4)GlcNAc
Method in brief: as §1

[21] = biological target: Gal(b1-4)GlcNAc(b1-2)[Gal(b1-4)GlcNAc(b1-6)]Man(a1-6)[Gal(b1-4)GlcNAc(b1-2)Man(a1-3)]Man(b1-4)GlcNAc(b1-4)GlcNAc
Method in brief: as §1

[22] = biological target: Gal(b1-4)GlcNAc(b1-2)[Gal(b1-4)GlcNAc(b1-6)]Man(a1-6)[Gal(b1-4)GlcNAc(b1-2)Man(a1-3)]Man(b1-4)GlcNAc(b1-4)[Fuc(a1-6)]GlcNAc
Method in brief: as §1

[23] = biological target: Gal(b1-4)GlcNAc(b1-2)[Gal(b1-4)GlcNAc(b1-6)]Man(a1-6)[GlcNAc(b1-4)][Gal(b1-4)GlcNAc(b1-2)Man(a1-3)]Man(b1-4)GlcNAc(b1-4)GlcNAc
Method in brief: as §1

[24] = biological target: Gal(b1-4)GlcNAc(b1-2)[Gal(b1-4)GlcNAc(b1-6)]Man(a1-6)[GlcNAc(b1-4)][Gal(b1-4)GlcNAc(b1-2)[Gal(b1-4)GlcNAc(b1-4)]Man(a1-3)]Man(b1-4)GlcNAc(b1-4)[Fuc(a1-6)]GlcNAc
Method in brief: as §1

[25] = biological target: Gal(b1-4)GlcNAc(b1-3)Gal(b1-3)GalNAc
Method in brief: as §1

[26] = biological target: Gal(b1-4)GlcNAc(b1-3)Gal(b1-3)GlcNAc
Method in brief: as §1

[27] = biological target: Gal(b1-4)GlcNAc(b1-3)Gal(b1-4)Glc
Method in brief: as §1

[28] = biological target: Gal(b1-4)GlcNAc(b1-3)Gal(b1-4)GlcNAc
Method in brief: as §1

[29] = biological target: Gal(b1-4)GlcNAc(b1-3)Gal(b1-4)GlcNAc(b1-2)Man(a1-3)[Gal(b1-4)GlcNAc(b1-3)Gal(b1-4)GlcNAc(b1-2)Man(a1-6)]Man(b1-4)GlcNAc(b1-4)GlcNAc
Method in brief: as §1

[30] = biological target: Gal(b1-4)GlcNAc(b1-3)Gal(b1-4)GlcNAc(b1-2)Man(a1-3)[Gal(b1-4)GlcNAc(b1-3)Gal(b1-4)GlcNAc(b1-2)Man(a1-6)]Man(b1-4)GlcNAc(b1-4)[Fuc(a1-6)]GlcNAc
Method in brief: as §1

B1: Pa IMPa (Pseudomonas aeruginosa), Q9I5W4 (protein)
chain: MSLSTTAFPSLQGENMSRSPIPRHRALLAGFCLAGALSAQAATQEEILDAALVSGDSSQLTDSHLVALRLQQQVERIRQTRTQLLDGLYQNLSQAYDPGAASMWVLPANPDNTLPFLIGDKGRVLASLSLEAGGRGLAYGTNVLTQLSGTNAAHAPLLKRAVQWLVNGDPGAATAKDFKVSVVGVDKTAALNGLKSAGLQPADAACNALTDASCASTSKLLVLGNGASAASLSATVRARLQAGLPILFVHTNGWNQSSTGQQILAGLGLQEGPYGGNYWDKDRVPSSRTRTRSVELGGAYGQDPALVQQIVDGSWRTDYDWSKCTSYVGRTTCDDVPGLSDFSKRVDVLKGALDAYNQKAQNLFALPGTTSLRLWLLWADAVRQNIRYPMDKAADTARFQETFVADAIVGYVREAGAAQKELGSYAGQRQQSMPVSGSEETLTLTLPSAQGFTAIGRMAAPGKRLSIRIEDAGQASLAVGLNTQRIGSTRLWNTRQYDRPRFLKSPDIKLQANQSVALVSPYGGLLQLVYSGATPGQTVTVKVTGAASQPFLDIQPGEDSSQAIADFIQALDADKADWLEIRSGSVEVHAKVEKVRGSIDKDYGGDVQRFIRELNEVFIDDAYTLAGFAIPNQAKTPAIQQECAARGWDCDSETLHKLPGTQHINVDQYAQCGGGCSGNPYDQTWGLNPRGWGESHELGHNLQVNRLKVYGGRSGEISNQIFPLHKDWRVLREFGQNLDDTRVNYRNAYNLIVAGRAEADPLAGVYKRLWEDPGTYALNGERMAFYTQWVHYWADLKNDPLQGWDIWTLLYLHQRQVDKSDWDANKAALGYGTYAQRPGNSGDASSTDGNDNLLLGLSWLTQRDQRPTFALWGIRTSAAAQAQVAAYGFAEQPAFFYANNRTNEYSTVKLLDMSQGSPAWPFP
[1]
  glycan array binding signal (z-score): -0.44
[2]
  glycan array binding signal (z-score): -0.27
[3]
  glycan array binding signal (z-score): -0.098
[4]
  glycan array binding signal (z-score): -0.184
[5]
  glycan array binding signal (z-score): -0.211
[6]
  glycan array binding signal (z-score): 1.02
[7]
  glycan array binding signal (z-score): 0.332
[8]
  glycan array binding signal (z-score): -0.396
[9]
  glycan array binding signal (z-score): -0.351
[10]
  glycan array binding signal (z-score): -0.448
[11]
  glycan array binding signal (z-score): 0.101
[12]
  glycan array binding signal (z-score): 0.105
[13]
  glycan array binding signal (z-score): 0.302
[14]
  glycan array binding signal (z-score): 0.603
[15]
  glycan array binding signal (z-score): -0.516
[16]
  glycan array binding signal (z-score): -0.177
[17]
  glycan array binding signal (z-score): -0.42
[18]
  glycan array binding signal (z-score): -0.409
[19]
  glycan array binding signal (z-score): -0.066
[20]
  glycan array binding signal (z-score): -0.134
[21]
  glycan array binding signal (z-score): -0.133
[22]
  glycan array binding signal (z-score): -0.317
[23]
  glycan array binding signal (z-score): 0.232
[24]
  glycan array binding signal (z-score): 0.256
[25]
  glycan array binding signal (z-score): -0.43
[26]
  glycan array binding signal (z-score): 0.118
[27]
  glycan array binding signal (z-score): -0.197
[28]
  glycan array binding signal (z-score): -0.509
[29]
  glycan array binding signal (z-score): -0.152
[30]
  glycan array binding signal (z-score): 0.449
